# From the supplement of paper PMC8728848
# This is one part of the list.
# Columns and labels:
# Experiment in all cases: glycan array binding signal (z-score within array); higher = stronger binding
# Conditions in all cases: glycan notation: IUPAC condensed, linker removed
# [1] = target: Man(a1-2)Man(a1-2)Man(a1-3)Man
# In short: (§1)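 Glycan array data were curated from 3228 arrays in the Consortium for Functional Glycomics database and kept only where the protein sequence was available. Glycan names were converted to IUPAC-condensed notation, and columns mapping to the same glycan were averaged. The binding signal is a within-array Z-score, averaged across arrays of the same protein sequence at different concentrations or buffers and across linkers. Negative Z-scores can be read as non-binding.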
# [2] = target: Man(a1-2)Man(a1-2)Man(a1-6)[Man(a1-3)]Man
# In short: as §1
# Man(a1-2)Man(a1-3)Man = target: Man(a1-2)Man(a1-3)Man
# In short: as §1
# [3] = target: Man(a1-2)Man(a1-3)[Man(a1-2)Man(a1-6)]Man
# In short: as §1
# [4] = target: Man(a1-2)Man(a1-3)[Man(a1-2)Man(a1-6)]Man(a1-6)[Man(a1-2)Man(a1-2)Man(a1-3)]Man(b1-4)GlcNAc(b1-4)GlcNAc
# In short: as §1
# [5] = target: Man(a1-2)Man(a1-3)[Man(a1-2)Man(a1-6)]Man(a1-6)[Man(a1-3)[Man(a1-6)]Man(a1-6)]Man(b1-4)GlcNAc(b1-4)GlcNAc
# In short: as §1
# [6] = target: Man(a1-2)Man(a1-3)[Man(a1-6)]Man(a1-6)[Man(a1-2)Man(a1-3)]Man(b1-4)GlcNAc(b1-4)GlcNAc
# In short: as §1
# [7] = target: Man(a1-2)Man(a1-6)[Man(a1-3)]Man(a1-6)[Man(a1-2)Man(a1-2)Man(a1-3)]Man(b1-4)GlcNAc(b1-4)GlcNAc
# In short: as §1
# Man(a1-3)[Man(a1-6)]Man = target: Man(a1-3)[Man(a1-6)]Man
# In short: as §1
# [8] = target: Man(a1-3)[Man(a1-6)]Man(a1-6)[Man(a1-3)]Man(b1-4)GlcNAc(b1-4)GlcNAc
# In short: as §1
# [9] = target: Man(a1-3)[Man(a1-6)]Man(b1-4)GlcNAc(b1-4)GlcNAc
# In short: as §1
# Man(b1-4)GlcNAc = target: Man(b1-4)GlcNAc
# In short: as §1
# Neu5Ac(a2-3)Gal = target: Neu5Ac(a2-3)Gal
# In short: as §1
# [10] = target: Neu5Ac(a2-3)Gal(b1-3)GalNAc
# In short: as §1
# [11] = target: Neu5Ac(a2-3)Gal(b1-3)GalNAc(b1-3)Gal(a1-4)Gal(b1-4)Glc
# In short: as §1
# [12] = target: Neu5Ac(a2-3)Gal(b1-3)GalNAc(b1-3)Gal(b1-4)GlcNAc
# In short: as §1
# [13] = target: Neu5Ac(a2-3)Gal(b1-3)GalNAc(b1-4)[Neu5Ac(a2-3)]Gal(b1-4)Glc
# In short: as §1
# [14] = target: Neu5Ac(a2-3)Gal(b1-3)GalNAc6S
# In short: as §1
# [15] = target: Neu5Ac(a2-3)Gal(b1-3)GlcNAc
# In short: as §1
# [16] = target: Neu5Ac(a2-3)Gal(b1-3)GlcNAc6S
# In short: as §1
# [17] = target: Neu5Ac(a2-3)Gal(b1-3)[Fuc(a1-4)]GlcNAc
# In short: as §1
# [18] = target: Neu5Ac(a2-3)Gal(b1-3)[Fuc(a1-4)]GlcNAc(b1-3)Gal(b1-4)[Fuc(a1-3)]GlcNAc
# In short: as §1
# [19] = target: Neu5Ac(a2-3)Gal(b1-3)[Neu5Ac(a2-3)Gal(b1-4)]GlcNAc
# In short: as §1
# [20] = target: Neu5Ac(a2-3)Gal(b1-3)[Neu5Ac(a2-6)]GalNAc
# In short: as §1
# Neu5Ac(a2-3)Gal(b1-4)Glc = target: Neu5Ac(a2-3)Gal(b1-4)Glc
# In short: as §1
# [21] = target: Neu5Ac(a2-3)Gal(b1-4)GlcNAc
# In short: as §1
# [22] = target: Neu5Ac(a2-3)Gal(b1-4)GlcNAc(b1-2)Man(a1-3)[Neu5Ac(a2-3)Gal(b1-4)GlcNAc(b1-2)Man(a1-6)]Man(b1-4)GlcNAc(b1-4)GlcNAc
# In short: as §1
# [23] = target: Neu5Ac(a2-3)Gal(b1-4)GlcNAc(b1-3)Gal(b1-4)GlcNAc
# In short: as §1
# [24] = target: Neu5Ac(a2-3)Gal(b1-4)GlcNAc(b1-3)Gal(b1-4)GlcNAc(b1-3)Gal(b1-4)GlcNAc
# In short: as §1
# [25] = target: Neu5Ac(a2-3)Gal(b1-4)GlcNAc(b1-3)Gal(b1-4)[Fuc(a1-3)]GlcNAc
# In short: as §1
# [26] = target: Neu5Ac(a2-3)Gal(b1-4)GlcNAc6S
# In short: as §1
# [27] = target: Neu5Ac(a2-3)Gal(b1-4)[Fuc(a1-3)]GlcNAc
# In short: as §1
# [28] = target: Neu5Ac(a2-3)Gal(b1-4)[Fuc(a1-3)]GlcNAc(b1-3)Gal
# In short: as §1
# [29] = target: Neu5Ac(a2-3)Gal(b1-4)[Fuc(a1-3)]GlcNAc(b1-3)Gal(b1-4)GlcNAc
# In short: as §1
binder,measurement,setting,value
MAL (Maackia amurensis) (protein) SDELSFTINNFMPNQGDLLFQGVATVSPTGVLQLTSEENGQPLEYSVGRVLYTAPVRIWDSTTGAVASFSTSFTFVVKAARGASDGLAFFLAPPDSQIPSGSVSKYLGLFNNSNSDSSNQIVAVEFDTYFGHSYDPWDPNYRHIGIDVNGIESIKTVQWDWINGGVAFATITYLAPNKTLIASLVYPSNQTSFIVAASVDLKEILPEWVRVGFSAATGAPKAVETHDVRSWSFTSTLEANSPADVDN,glycan array binding signal (z-score),[1],-0.423
same,glycan array binding signal (z-score),[2],-0.292
same,glycan array binding signal (z-score),Man(a1-2)Man(a1-3)Man,-0.383
same,glycan array binding signal (z-score),[3],-0.303
same,glycan array binding signal (z-score),[4],-0.328
same,glycan array binding signal (z-score),[5],-0.305
same,glycan array binding signal (z-score),[6],-0.378
same,glycan array binding signal (z-score),[7],-0.211
same,glycan array binding signal (z-score),Man(a1-3)[Man(a1-6)]Man,-0.38
same,glycan array binding signal (z-score),[8],-0.159
same,glycan array binding signal (z-score),[9],0.125
same,glycan array binding signal (z-score),Man(b1-4)GlcNAc,-0.191
same,glycan array binding signal (z-score),Neu5Ac(a2-3)Gal,-0.429
same,glycan array binding signal (z-score),[10],-0.357
same,glycan array binding signal (z-score),[11],-0.194
same,glycan array binding signal (z-score),[12],-0.409
same,glycan array binding signal (z-score),[13],-0.409
same,glycan array binding signal (z-score),[14],0.112
same,glycan array binding signal (z-score),[15],-0.331
same,glycan array binding signal (z-score),[16],0.76
same,glycan array binding signal (z-score),[17],-0.428
same,glycan array binding signal (z-score),[18],-0.301
same,glycan array binding signal (z-score),[19],-0.425
same,glycan array binding signal (z-score),[20],-0.013
same,glycan array binding signal (z-score),Neu5Ac(a2-3)Gal(b1-4)Glc,0.228
same,glycan array binding signal (z-score),[21],1.39
same,glycan array binding signal (z-score),[22],-0.236
same,glycan array binding signal (z-score),[23],0.816
same,glycan array binding signal (z-score),[24],2.26
same,glycan array binding signal (z-score),[25],0.762
same,glycan array binding signal (z-score),[26],2.84
same,glycan array binding signal (z-score),[27],-0.15
same,glycan array binding signal (z-score),[28],-0.417
same,glycan array binding signal (z-score),[29],-0.363
